In all, about 46,000 compounds went through this assay and about 60 (0.1%) were called active. About 3% were inconclusive and are not listed. Calls follow the shape of the dose curve; as a rule, active = well fitted inhibition curve with a large enough effect; inconclusive = small, poorly fitted or top-dose-only effect; inactive = no such curve, though single readings can be large or run the other way. The list shows a part of the results.
Assay: Primary qHTS assay for Inhibitors of ovarian cancer metastasis using an organotypic tumor microenvironment (TME) model. Also: nearly all actives have a fitted effect of over 65% in size.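 As to activity change, negative = inhibition: plate controls were DMSO wells for no effect and tomatine positive control wells for full effect.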
Details: SKOV3ip1-GFP adhesion/invasion on 3D omental model, fluorescence; series mostly up to 45.8 µM; activity change, negative = inhibition: at the top concentration
Outline: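 Primary human omental fibroblast/mesothelial 3D culture pre-formed 48 h. SKOV3ip1-GFP cells added with compounds (0.36-46 umol/L), incubated 2 h RT/16 h 37 C, fixed; GFP cells quantified at 488/509 nm.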

Activity change, negative = inhibition, inactive:
CCCn1c(=O)sc2cc(NC(=O)c3ccccc3Cl)ccc21 7.51%
COc1cc(NC(=O)CCn2nc(C)cc2C)cc(OC)c1OC -2%
O=C(CSc1nccn1Cc1ccc2c(c1)OCO2)Nc1ccccc1F 3.37%
CC1CCCCN1C(=O)CSc1nc(-c2ccccc2)no1 (stereo not drawn) -16%
Cc1cccc(NC(=O)CSc2nc3c([nH]c4ccccc43)c(=O)n2-c2cc(C)cc(C)c2)c1 61.8%
COc1cc(/C=C(/C#N)c2nc(-c3cc4ccccc4oc3=O)cs2)ccc1O 1.59%
CCOC(=O)C1=C(CN2CCC(C)CC2)NC(=O)NC1c1ccc(OC(C)C)cc1 (stereo not drawn) 2.46%
COc1ccc(Br)cc1CNC(=O)Cn1nc(C)n2c(cc3cc(F)ccc32)c1=O 4.05%
CCOC(=O)c1ccccc1NC(=O)CSc1nc(=O)[nH]c2c1CCCC2 -10.1%
CSc1cccc(-n2nnc(-c3nsc(NC(=O)c4cccs4)n3)c2C)c1 -2.99%
Cc1cc(=O)n(CC(=O)N2CCCCC2)c2c1c(C)nn2C -0.582%
COc1ccc(Nc2nc3c(S(=O)(=O)c4ccccc4)nnn3c3ccc(Cl)cc23)cc1 1.48%
COc1cccc(CNC(=O)Cn2c(=O)ccc3cc(S(=O)(=O)N4CCCC4)ccc32)c1 4.3%
CCc1ccc(S(=O)(=O)c2nnn3c2nc(N(C)Cc2ccccc2)c2cc(Cl)ccc23)cc1 9.43%
COc1ccc(-n2c(C)nc3c(cnn3-c3ccc(C)c(C)c3)c2=O)cc1Cl -2.83%
CCc1ccc2occ(CC(=O)N(Cc3ccccc3)C3CCS(=O)(=O)C3)c2c1 (stereo not drawn) 1.56%
O=S(=O)(NCCS(=O)(=O)N1CCN(c2ccccc2)CC1)c1ccccc1 -16.6%
CN(C1CCCCC1)S(=O)(=O)c1ccc2c(c1)c(=O)c(C(=O)N1CCN(c3ccccc3)CC1)cn2C 9.88%
O=C(O)c1ccc(NC(=O)c2ccc(Cl)c(S(=O)(=O)N3CCCCCC3)c2)cc1 0.627%
COc1ccc(CCNC(=O)c2ccc3c(c2)nc(C)n3-c2ccc(Br)cc2)cc1OC -1.85%
Cc1ccccc1NC(=O)c1cc2c([nH]c1=O)CC(C)(C)CC2=O 2.64%
O=C(Nc1ccc(Cl)cc1Cl)c1cc(S(=O)(=O)NCc2ccc3c(c2)OCO3)ccc1F -3.69%
Cc1ccc(Cn2c(CO)cnc2SCc2ccc(F)cc2)cc1 1.31%
CCOc1ccc(C(=O)Nc2ccc(-c3cc4ccccc4oc3=O)cc2)cc1Br -21.2%
COc1ccccc1Cn1cc(C(=O)c2ccccc2)c(=O)c2cc(OC)c(OC)cc21 5.86%
COc1ccc(-c2cc(C(=O)Nc3cc(C(F)(F)F)ccc3Cl)no2)cc1 2.35%
Cc1nn(CCC(=O)Nc2ccc(Cl)cc2)c(C)c1S(=O)(=O)N1CCCCC1 8.02%
CCOc1ccccc1CNC(=O)c1cnn(-c2ccc(C)cc2)c1-n1cccc1 29.3%
O=C(NCc1ccccc1)c1cccn1-c1nnc(N2CCCCC2)s1 -14.5%
Cc1ccc(CSc2nc3cccnc3n2Cc2ccc(C(=O)NC3CC3)cc2)cc1 3.58%
Cc1ccc(-n2ncc3c(=O)n(Cc4cccc(Cl)c4)cnc32)cc1C -1.69%
CCc1cccc(NC(=O)C2CCN(S(=O)(=O)c3ccc(Br)s3)CC2)c1 -1.12%
CCCn1c2ccccc2c2cnn(CC(=O)NCCc3ccc(S(N)(=O)=O)cc3)c(=O)c21 4.42%
COc1ccc(NC(=O)CCCOc2cc(=O)n(C)c3ccccc23)c(OC)c1 -2.7%
Cc1ccc(NC(=O)Cn2cnc3c(oc4ccccc43)c2=O)cc1Cl -22.3%
COCCNC(=O)CSc1c(C)cnc2c1c(=O)n(C)c(=O)n2C -13.7%
Cc1ccc(-n2c(=O)c3ccc(C(=O)NCc4ccco4)cc3n(Cc3ccccc3Cl)c2=O)cc1 -14.2%
Brc1cccc(-c2nnn3c2nc(NC2CCCCC2)c2ccccc23)c1 2.5%
CCOc1ccc(NC(=O)c2cc3cc4ccc(C)cc4nc3o2)cc1 -4.08%
COc1ccccc1C(=O)Nc1nnc(SCc2cc(=O)c3ccccc3[nH]2)s1 -7.9%
COc1ccc2nc3sc(C(=O)NCCc4ccc(Cl)cc4)cc3cc2c1 16.6%
CCS(=O)(=O)c1ncc(Cl)c(C(=O)Nc2ccc(S(=O)(=O)N(C)c3ccccc3)cc2)n1 -12.2%
Cc1oc2c(c1C(=O)Nc1ccc(OC(F)(F)F)cc1)C1=NCCN1C=N2 6.57%
CCc1ccc(NC(=O)CCc2c(C)nn(-c3ccc(N4CCCC4)nn3)c2C)cc1 4.25%
COc1ccc(-c2nc3ccccc3o2)cc1NC(=O)COc1cc(C)cc(C)c1 -4.88%
Cc1cc(=O)[nH]c2nnc(SCC(N)=O)n12 2.71%
COc1ccc(C(=O)c2c(N)c(C(=O)Nc3ccccc3Cl)c3ccccn23)cc1 1.68%
O=C(COc1ccc2oc3c(c2c1)CCCC3)Nc1cccc(Br)c1 -0.597%
COc1ccc(NC(=O)CCS(=O)(=O)c2cc3c4c(c2)CCN4C(=O)CC3)c(OC)c1 0.826%
CCCCc1ccc(C(=O)c2c(N)c(C(=O)Nc3cccc(OC)c3)c3ccccn23)cc1 2.02%
Cc1nnc(N2C(=O)c3oc4ccccc4c(=O)c3C2c2cccc(OCCC(C)C)c2)s1 (stereo not drawn) -13.7%
CC1CCN(C(=O)Cn2cc(SCC(=O)NCc3ccc(F)cc3)c3ccccc32)CC1 -18.1%
Cn1c(=O)c2cc(C(=O)NCCCN3CCN(c4ccc(F)cc4)CC3)sc2c2ccccc21 -5.15%
O=[N+]([O-])c1cc(-c2nc(-c3ccccc3)no2)ccc1NCc1ccco1 6.86%
Cc1ccc(-c2noc(-c3ccc(N4CCOCC4)c([N+](=O)[O-])c3)n2)cc1 -10.4%
COc1ccc(NC(=O)CSc2nc3ccccc3nc2N2CCOCC2)c(OC)c1 -0.627%
COc1ccc(C(=O)/C=C/c2cn(CC(O)CN3CCCCCC3)c3ccccc23)cc1OC (stereo not drawn) -15.1%
COCCCNC(=O)c1c(NC(=O)Cc2coc3cc(C)ccc23)sc2c1CCCC2 11.2%
Cc1ccc(NC2(c3ccccc3)C(=O)c3ccccc3C2=O)cc1F -4.65%
COc1ccc(Cn2c(SCC(=O)N3CCN(c4ccc(F)cc4)CC3)nc3ccccc32)cc1 -5.6%
Cc1ccc2scc(N3CCCCC3C)c(=O)c2c1 (stereo not drawn) 3.47%
Cc1ccccc1CNC(=O)CN1C(=O)CCCc2ccccc21 8.04%
COc1ccc(CCNC(=O)CCCn2c(=O)c3ccccc3n(CC(=O)Nc3ccccc3C)c2=O)cc1OC 27.9%
Cc1ccc(C2CC(=O)N(Cc3ccc(F)cc3)c3c2c(C)nn3-c2nc(C)cc(C)n2)cc1 (stereo not drawn) -26.2%
Cc1ccsc1CN(C(=O)COc1ccccc1Cl)C1CCS(=O)(=O)C1 (stereo not drawn) -7.14%
COCCNC(=O)Cn1c(-c2cccs2)cc2cc(Cl)ccc21 -4.23%
CCc1ccccc1NC(=O)CN(c1ccccc1OC)S(=O)(=O)c1ccc(C)cc1 -1.41%
CC1CCN(S(=O)(=O)c2ccc3c(c2)N(CC(=O)NCCCOC(C)C)C(=O)CO3)CC1 9.75%
Cc1sc(C2C(C#N)=C(N)N(c3ccc(Cl)cc3)C3=C2C(=O)CCC3)cc1CN1CCOCC1 (stereo not drawn) 1.01%
CCC(C(=O)NC1CCCCC1)n1c(SCc2ccccc2F)nc2ccncc21 (stereo not drawn) -8.2%
COCCNC(=O)CN1C(=O)COc2ccc(S(=O)(=O)N3CCCCCC3)cc21 6.15%
COc1ccc(C2C(=O)N(C3CCCCCC3)CC(=O)N2CCc2ccc(Cl)cc2)cc1OC (stereo not drawn) -3.77%
CCOC(=O)CSc1nc2sc3c(c2c(=O)n1Cc1ccccc1)CC(C(C)C)OC3 (stereo not drawn) 44.4%
Cc1nn(C(C)C(=O)NCCc2ccccc2)c(=O)c2c1sc1ccccc12 (stereo not drawn) 2.96%
CCc1ccc(NC(=O)CSc2ccc(-c3sc(-c4ccccc4)nc3C)nn2)cc1 -7.42%
COc1ccc(NC(=O)Cn2c(=O)n(CCCC(=O)NCc3ccccc3Cl)c(=O)c3ccccc32)c(OC)c1 18.7%

outcome, inactive:
Cc1c(Cl)cccc1NC(=O)Nc1c[nH]c(=O)[nH]c1=O
CCN(CC)CCCNC(=O)c1cn(CC)c2ccc(S(=O)(=O)N3CCC(C)CC3)cc2c1=O
CCS(=O)(=O)N1CCCc2cc(C(=O)Nc3cc([N+](=O)[O-])ccc3C)ccc21
Cc1ccc(NC(=O)CN2C(=O)C(c3ccccc3)=NC23CCCCC3)cc1C
COC(=O)c1ccc(NC(=O)C(C)Sc2nc(=O)cc(N)n2CCc2ccccc2)cc1 (stereo not drawn)
Cc1ccc(NC(=O)CN2C(=O)CCSc3ccccc32)c(C)c1
Cc1nc2c3ccccc3nc(NNC(=O)CCC(=O)O)n2n1
CN(C)c1ccc(CNC(=O)C2CCN(c3nnc(-n4cccc4)s3)CC2)cc1
COc1ccc(Cn2c(C(=O)O)c(CNCc3ccco3)c3ccc(C)cc32)cc1
Cc1ccc(C)c(NC(=O)Nc2cc3c(cc2N2CCCCC2)n(C)c(=O)n3C)c1
COc1cc(OC)c(NC(=O)C2=C(C)C(=O)OC23CCN(C(C)=O)CC3)cc1Cl
Cn1c(NCc2cccc(Cl)c2)nc2ccccc21
CCN(C(=O)c1ccc(C(=O)N(CC)c2ccccc2C)cc1)c1ccccc1C
C=Cc1ccc(CN2C(=O)N(c3ccc(C)c(C)c3)S(=O)(=O)c3ccccc32)cc1
Cc1nn(-c2ccc(N3CCOCC3)nn2)c(C)c1CCC(=O)NCc1ccc(Cl)cc1
COc1ccc(NS(=O)(=O)c2cnc(N)nc2)cc1Cl
CC(=O)c1ccc(Oc2ncnc3c2oc2ccccc23)cc1
COc1cc(C(=O)NCCc2sc(-c3ccc(C)cc3)nc2C)cc(OC)c1OC
Cc1ccccc1CN1C(=O)c2ccccc2S(=O)c2ccc(C(=O)N3CCOCC3)cc21 (stereo not drawn)
Cc1ccc(C(=O)c2oc3ccccc3c2NC(=O)COc2ccccc2C)cc1
CCC(C)NC(=O)CCCn1c(=O)c2cccn2c2ccccc21 (stereo not drawn)
CCN(Cc1ccccc1)c1nc2c(S(=O)(=O)c3ccccc3)nnn2c2ccc(Cl)cc12

Source: PubChem BioAssay AID1963576 (National Center for Advancing Translational Sciences (NCATS), 2024)
